# From PubChem BioAssay AID1159614 (National Center for Advancing Translational Sciences (NCATS), 2016)
# In all, about 45,000 compounds went through this assay and about 65 (0.1%) were called active. Calls come from the whole dose curve; as a rule, active = well fitted activation curve with a large enough effect; inconclusive = small, poorly fitted or top-dose-only effect; inactive = no such curve, though single readings can be large or run the other way. This is one part of the list.
# Biological target: Galactocerebrosidase (Homo sapiens) (UniProt P54803)
# Experiment: A Novel Cell-Based Assay to Identify Small Molecules for B -Galactocerebrosidase; note: nearly all actives have a fitted effect of over 65% in size; for activation: 0% is about no effect
# Conditions: 145M-Twi-hGALC-G270D cells (Twitcher mouse brain line with human GALC G270D), HMU-beta-Gal fluorescence, 48 h; series mostly up to 57.5 µM; activation: at the top concentration
# How it was run: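 Fluorescence readout: HMU-β-gal cleavage by mutant GALC (0.1 mM final, citrate/phosphate pH 5.2 with 1 mg/mL taurocholate), stopped with carbonate/bicarbonate plus Triton X-100. Cells: murine Twitcher 145M-Twi expressing human G270D GALC; qHTS for activators.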
# Potency is the fitted concentration of half-maximal effect.
# UniProt P54803, sequence (P54803 whole entry, looked up): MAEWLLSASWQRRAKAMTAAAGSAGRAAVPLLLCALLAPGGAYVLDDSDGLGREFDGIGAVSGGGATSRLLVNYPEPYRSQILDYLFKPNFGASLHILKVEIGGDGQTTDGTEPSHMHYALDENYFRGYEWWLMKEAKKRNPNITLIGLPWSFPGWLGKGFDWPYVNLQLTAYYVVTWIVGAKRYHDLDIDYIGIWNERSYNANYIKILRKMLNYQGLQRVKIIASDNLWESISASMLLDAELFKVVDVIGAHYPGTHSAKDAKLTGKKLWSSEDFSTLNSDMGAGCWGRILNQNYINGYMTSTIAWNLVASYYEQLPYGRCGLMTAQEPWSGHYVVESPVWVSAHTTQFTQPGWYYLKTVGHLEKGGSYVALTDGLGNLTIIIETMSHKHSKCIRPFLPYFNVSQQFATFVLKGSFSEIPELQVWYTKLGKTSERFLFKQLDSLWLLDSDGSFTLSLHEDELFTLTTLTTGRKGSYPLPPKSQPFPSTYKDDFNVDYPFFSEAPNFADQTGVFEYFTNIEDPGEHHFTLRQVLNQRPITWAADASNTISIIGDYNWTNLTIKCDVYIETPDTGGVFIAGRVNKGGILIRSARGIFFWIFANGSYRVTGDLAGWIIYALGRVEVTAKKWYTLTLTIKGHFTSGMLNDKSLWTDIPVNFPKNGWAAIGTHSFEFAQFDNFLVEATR
Compound,activation,Potency
O=S1(=O)c2ccccc2N(Cc2ccccc2Cl)c2ccccc21,inactive: -15.5%,–
CCC1CN(C(=O)NCc2cccc(OC)c2)c2ccccc2O1 (centres undefined),inactive: -6.5%,–
COc1ccc(CCNC(=O)c2cc3c(=O)n(C)c4cc(Cl)ccc4c3s2)cc1OC,inactive: -10.7%,–
COc1ccc(-c2[nH]c(-c3ccccc3)nc2SCC(=O)NC2CCCC2)cc1,inactive: -22.3%,–
CC(C(=O)O)c1cccc(Oc2ccccc2)c1 (centres undefined),inactive: -28.7%,–
Cc1ccc(-c2ccc(=O)n(CC(=O)NC(C)c3ccccc3)n2)cc1 (centres undefined),inactive: -14.1%,–
O=C(CN1C(=O)COc2ccc(S(=O)(=O)Nc3ccccc3)cc21)NCc1ccccc1Cl,inactive: -14.4%,–
CCN(CC)S(=O)(=O)c1ccc(C(=O)NC2CC(=O)N(c3ccc4c(c3)OCCO4)C2)cc1 (centres undefined),inactive: 1.32%,–
CCOC(=O)c1c(S(=O)(=O)N2CCC(C(=O)Nc3cccc(C#N)c3)CC2)c(C)n(C)c1C,inactive: -9.79%,–
Cc1c(C(=O)OC2CCCCCC2)[nH]c2c1C(=O)CC(c1ccccc1Cl)C2 (centres undefined),inactive: -19.9%,–
Cc1ccccc1NC(=O)Cn1c(=O)n(CCCCC(=O)NCc2ccccc2Cl)c(=O)c2ccccc21,inactive: -24.1%,–
COc1ccc(CCNc2nc(SCc3ccccc3Cl)nc3ccccc23)cc1OC,inactive: 0.867%,–
CCOC(=O)c1ccc(N2C(=O)c3[nH]nc(-c4ccccc4)c3C2c2cccs2)cc1 (centres undefined),inactive: -24.4%,–
COc1ccc(NC(=O)Cn2c(=O)n(CCc3ccccc3)c(=O)c3sc4ccccc4c32)cc1,inactive: 1.2%,–
Cc1cc(C)nc(-n2nc(C)c3c2NC(=O)CC3c2ccccc2OC(C)C)n1 (centres undefined),inactive: -17.7%,–
O=C(CSc1nc2c(c(=O)[nH]1)CN(Cc1ccc(F)cc1)CC2)Nc1cccc(C(F)(F)F)c1,inactive: -5.62%,–
Cc1ccc(C)c(NC(=O)C2CCCN(S(=O)(=O)c3cccc4nsnc34)C2)c1 (centres undefined),inactive: -7.29%,–
CCCCC(=O)NC1(C(F)(F)F)C(=O)Nc2c1c(=O)[nH]c(=O)n2-c1ccc(F)cc1 (centres undefined),inactive: -14.1%,–
CCC1CCCCN1C(=O)Cn1c(=O)n(-c2ccccc2C(F)(F)F)c(=O)c2c(C)c(C(=O)N(C)C)sc21 (centres undefined),inactive: -10.3%,–
COc1cc(Cl)c(NS(=O)(=O)c2ccc3[nH]c(=O)ccc3c2)c(OC)c1,inactive: -15.5%,–
COc1ccccc1N1CCN(C(c2ccccc2)c2nnc(-c3ccccc3Cl)o2)CC1 (centres undefined),inactive: -17.6%,–
Cc1ccc(NC(=O)Cn2c(=O)n(Cc3nc(-c4ccccc4)no3)c(=O)c3cc4c(cc32)OCO4)cc1C,inactive: -9%,–
CCOc1ccc(OCC)c(NC(=O)CN(c2ccc(C)cc2)S(=O)(=O)c2c(C)n[nH]c2C)c1,inactive: -14.2%,–
CCOc1ccc(NC(=O)C(CC)n2nc(-c3ccc(C)c(C)c3)ccc2=O)cc1 (centres undefined),inactive: -7.61%,–

Compound,activation,Potency
COc1ccc(C2CC(=O)c3c([nH]c(C(=O)OC4CCCC4)c3C)C2)cc1OC (centres undefined),inactive: -16%,–
COc1ccc(-c2csc3ncnc(Nc4ccc(OC)c(OC)c4)c23)cc1,inactive: -14.2%,–
CCOc1ccc(CCNC(=O)c2ccc(Cn3c(=O)c4cccn4c4cccnc43)cc2)cc1,inactive: 11.6%,–
COc1cccc(C(=O)c2sc(Nc3ccc(C)cc3C)c(S(=O)(=O)c3ccccc3)c2N)c1,inactive: -14.2%,–
C[C@@H]1CN(CCCn2c3ccccc3c3ccccc32)C[C@H](C)N1,inactive: -13.1%,–
CC(C)=CCOc1ccc(/C=C/C(=O)c2ccc(OCC=C(C)C)cc2OCC(=O)O)cc1,inactive: -5.43%,–
CCCNC(=O)c1cc2n(n1)CCCN(Cc1ccc(F)cc1)C2=O,inactive: -4.14%,–
O=C(c1ccc2c(c1)N(Cc1ccccc1F)C(=O)c1ccccc1S2(=O)=O)N1CCCCCC1,inactive: -5.9%,–
O=C(C1COc2ccccc2O1)N(Cc1cccnc1)c1nc2ccc(F)cc2s1 (centres undefined),inactive: -8.85%,–
CCOc1ccc(CCNC(=O)c2ccc3[nH]c(C)c(C)c3c2)cc1,inactive: -6.35%,–
Cc1ccc2scc(N3CCN(c4ccccc4)CC3)c(=O)c2c1,inactive: -13.4%,–
O=C(CSCc1nc2cccnc2n1C1CCCCC1)NCc1cccc(Br)c1,inactive: -2.02%,–
O=C(OCc1ccccc1)c1ccc(-c2nnn(Cc3ccccc3F)n2)cc1,inactive: 0.706%,–
CCOC(=O)c1sc(N2C(=O)c3oc4ccc(F)cc4c(=O)c3C2c2cccc(OC)c2)nc1C (centres undefined),inactive: -8.36%,–
CCN(C(=O)Cn1c(SCc2ccccc2F)nc2cccnc21)c1ccccc1,inactive: -0.545%,–
Cc1cc(N2CCCCC2)nc2ccc(NC(=O)CCC(=O)N3CCN(c4cccc(Cl)c4)CC3)cc12,inactive: -4.14%,–
COc1ccc(N2CC(NC(=O)/C=C\c3ccccc3)CC2=O)cc1 (centres undefined),inactive: 8.98%,–
C[C@@H](NCCCc1cccc(C(F)(F)F)c1)c1cccc2ccccc12,inactive: -10%,–
O=C(Cn1c(SCCOc2ccccc2)nc2ccccc21)N1CCOCC1,inactive: -24%,–
COc1cccc(CNC(=O)C(=O)NCC(c2ccco2)S(=O)(=O)c2cccs2)c1 (centres undefined),inactive: -4.89%,–
CC(=O)N1CCc2cc(CNC(=O)Cc3ccc(F)cc3)ccc21,inactive: -29.4%,–
CCOc1ccccc1CNC(=O)C1CCN(C(=O)N2CC(CC)Oc3ccc(C)cc32)CC1 (centres undefined),inactive: -14.4%,–
O=C(/C=C/c1ccccc1)N1CCN(Cc2cc(=O)n3nc(-c4ccccc4F)sc3n2)CC1,inactive: -24.1%,–
CC(C)(C)C(=O)Cn1c(=O)n(-c2ccc(Cl)cc2)c(=O)c2c3c(sc21)CCCC3,inactive: -11.4%,–

Compound,activation,Potency
O=C(Nc1ccc2nc(SCC(=O)N3CCOCC3)sc2c1)c1cccc(Cl)c1,inactive: -11.6%,–
Cc1c(C(=O)OCCOc2ccccc2)[nH]c2c1C(=O)CC(c1ccccc1)C2 (centres undefined),inactive: -20.5%,–
Cc1cc(OCCn2cc(C(=O)c3cccs3)c3ccccc32)ccc1Cl,inactive: -8.64%,–
Cc1c(Cl)cccc1NC(=O)COCc1cc(-c2ccc3c(c2)OCO3)on1,inactive: -4.38%,–
Cc1nc2c(-c3ccccc3)c(C)nn2c(C)c1CCC(=O)N1CCN(c2ccc(F)cc2)CC1,inactive: -17.4%,–
COc1cccc(CNC(=O)CCc2c(C)nc3c(c(C)nn3-c3ccc(C)c(C)c3)c2C)c1,inactive: -20.1%,–
Cc1cccc(N2CCN(CCCNc3ncnc4onc(-c5ccc(Cl)cc5)c34)CC2C)c1 (centres undefined),inactive: -18.2%,–
CSc1ccc(CCNC(=O)c2ccc(-c3nc(COc4ccccc4)c(C)o3)cc2)cc1,inactive: -21.3%,–
Cc1ccc(Cn2ccn(Cc3ccccc3F)c(=O)c2=O)cc1,inactive: -10.7%,–
COc1ccc(NC(=O)Cn2c(=O)n(CCC(=O)NCc3ccccc3OC)c(=O)c3ccccc32)cc1Cl,inactive: -7.27%,–
COc1ccc(Cl)cc1N(C)C(=O)c1ccc2c(=O)n3c(nc2c1)CCCCC3,inactive: -7.43%,–
COc1ccc(CCNC(=O)CCn2c(=O)c3ccccc3n(Cc3cc(C)ccc3C)c2=O)cc1OC,inactive: -13.2%,–
Cc1cccc(NC(=O)c2ccc3snnc3c2)c1,inactive: -9.43%,–
CCN1CCOC(=O)C1CC(=O)Nc1cc(C)ccc1OC (centres undefined),inactive: -14.8%,–
Cc1ccc2nc(-c3ccc(Cl)c(NC(=O)COc4cccc(C)c4C)c3)oc2c1,inactive: -4.06%,–
Cc1cc2c(cc1NS(=O)(=O)c1ccc(F)cc1)n(C)c(=O)c(=O)n2C,inactive: -8.72%,–
CCc1cccc(C)c1NS(=O)(=O)c1cc2[nH]c(=O)c(=O)[nH]c2cc1C,inactive: -3.97%,–
CCN(CC)c1ccc(NC(=O)CCS(=O)(=O)c2cc3c(cc2Cl)NC(=O)CO3)c(C)c1,inactive: -13.5%,–
CCCc1cc(=O)[nH]c2nnc(SC(C)CC)n12 (centres undefined),inactive: -1.99%,–
CCOC(=O)c1sc(NC(=O)/C=C/c2ccc(C(C)C)cc2)c(C(=O)OCC)c1C,inactive: -21.3%,–
Cc1cc(NS(=O)(=O)c2ccc(NC(=O)c3ccccc3C)cc2)nc(C)n1,inactive: -9.92%,–
COc1ccc(N(C(=O)c2ccc(OC)c(OC)c2)S(=O)(=O)c2ccc(Cl)cc2)cc1,inactive: -13.1%,–
COc1cccc(NC(=O)CSc2nnc3scc(-c4ccc(Cl)cc4)n23)c1,inactive: -16.9%,–
Cc1ccc(C)c(NC(=O)CC2NCCNC2=O)c1 (centres undefined),inactive: 4.41%,–

Compound,activation,Potency
CCc1nnc(SCC(=O)Nc2ccccc2Cl)nc1CC,inactive: -6.76%,–
CC(C)COc1ccc(C(=O)NCC2(N3CCN(C)CC3)CCCCC2)cc1,inactive: -26.7%,–
COCCNC(=O)Cn1nc(C)c2c(C)n(-c3ccc(C)cc3)nc2c1=O,inactive: -10%,–
CCc1ccc2ncc3c(-c4ccccc4)nn(-c4ccccc4)c3c2c1,inactive: 28.1%,–
CCc1ccc(NCc2cc3cc4c(cc3n(CC(=O)Nc3cccc(OC)c3)c2=O)OCO4)cc1,–,active: 28.2 µM
CCCN(CCC)C(=O)Cn1c(=O)n(-c2cccc(OC)c2)c(=O)c2c3c(sc21)CCCC3,inactive: -13.3%,–
Cc1ccn2c(=O)cc(COc3ccc(NC(=O)COc4ccc(Cl)cc4)cc3)nc2c1,inactive: -5.46%,–
CCCC(C(=O)NCc1cccc(Cl)c1)N1Cc2ccccc2C1=O (centres undefined),inactive: -15.8%,–
O=C(CCCCn1c(=O)c2ccccc2n(Cc2ccccc2Cl)c1=O)NCCc1ccccc1,inactive: -1.27%,–
Cc1csc2nc(COC(=O)c3cccc(NC(=O)COc4ccc(Cl)cc4)c3)cc(=O)n12,inactive: -10.3%,–
N#Cc1ccccc1Cn1c(=O)n(CCCC(=O)NCc2ccc3c(c2)OCO3)c(=O)c2sccc21,inactive: -9.51%,–
Cc1ccc(NC(=O)C2CCCN(c3nnc(-n4c(C)ccc4C)s3)C2)c(C)c1 (centres undefined),inactive: 12.2%,–
CC(=O)N1c2c(cc(Br)cc2S(=O)(=O)N2CCN(c3cc(C)ccc3C)CC2)CC1C (centres undefined),inactive: -12.4%,–
Cc1ccccc1CN1C(=O)c2ccccc2S(=O)c2ccc(C(=O)NC3CCC(C)CC3)cc21 (centres undefined),inactive: 1.41%,–
Cc1ccc(S(=O)(=O)c2nnn3c2nc(N2CCCC2)c2sccc23)cc1C,inactive: -8.02%,–
Cc1ccc(S(=O)(=O)c2nnn3c2nc(N2CCN(c4ccccc4F)CC2)c2cc(Cl)ccc23)cc1C,inactive: -15.1%,–
O=C(c1ccc2c(c1)N(Cc1cccc(F)c1)C(=O)c1ccccc1S2)N1CCOCC1,inactive: -8.63%,–
COc1ccc(/C=C/C(=O)Nc2ccc3nc4c(c(Nc5ccccc5OC)c3c2)CCCC4)cc1,inactive: -12.6%,–
COc1ccc(OC)c(NC(=O)C2=C(C)C(=O)OC23CCCCCC3)c1,inactive: 13.4%,–
CC1=C(C#N)C(NC(=O)c2ccccc2Cl)(C(F)(F)F)C(=O)N1 (centres undefined),inactive: -9.28%,–
CCc1ccc(NC(=O)c2sc3nc(C)c(Cl)c(C)c3c2NC(=O)c2ccccc2OC)cc1,inactive: -7.92%,–
Cc1ccc2c(=O)cc(C(=O)Nc3nc4ccc(Cl)cc4s3)oc2c1C,inactive: -11%,–
